Some test systems named below: G361; IPC-298; IST-MEL1; LOXIMVI; MEL-HO; MeWo; RPMI7951; RVH-421; LB2518-MEL; MZ2-MEL.
Assay in all cases: cell count relative to DMSO control; melanoma cells; higher = more viable cells
Common to all, as to conditions: library dose: standard library concentration; 72 h

Some of the results follow. Most values come without repeats; read them as rough.
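Note: cells treated in 1,536-well plates, then fixed and DAPI-stained, with nuclei counted from automated high-throughput microscope images.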

Consider `C#Cc1cccc(Nc2ncnc3cc(OCCOC)c(OCCOC)cc23)c1` [erlotinib] + Cc1cc(SCc2sc(-c3ccc(C(F)(F)F)c(F)c3)nc2C)ccc1OCC(=O)O [GW0742] (first compound 4 µM, partner dose 10 µM), for which the cell count amounted to 70.6% in the assay with G361; 77.7% with IPC-298; 89.5% in the assay on IST-MEL1; 74.2% in the assay on LOXIMVI; 78.2% in the assay with MEL-HO; 79.5% with MeWo. The values for the cell count in the assay on RPMI7951 and in the assay with RVH-421 were 76.4% and 79.4%, respectively.

As to `Oc1nc(-c2ccc(C(F)(F)F)cc2)nc2c1CSCC2` + O=C(Oc1ccc([N+](=O)[O-])cc1)N1CCC(C(O)(c2ccc3c(c2)OCO3)c2ccc3c(c2)OCO3)CC1 [JZL184] (first compound 10 µM, partner dose 5 µM), the cell count in the assay on G361 was determined as 87.2%; with IPC-298, 96.8%; in the assay with IST-MEL1, 108%; in the assay with LB2518-MEL, 70.7%; in the assay with LOXIMVI, 120%; with MEL-HO it was 101%. The cell count in the assay with MZ2-MEL was found to be 97.1%; in the assay on MeWo it was 86.6%; with RPMI7951 it was 79.3%; with RVH-421 it was 101%.

Take `CN1CCN(c2ccc3nc(-c4c(N)c5c(F)cccc5[nH]c4=O)[nH]c3c2)CC1` [Dovitinib] + C[As](C)SC[C@H](NC(=O)CC[C@H](N)C(=O)O)C(=O)NCC(=O)O [Darinaparsin] (first compound 0.5 µM, partner dose 2 µM): the cell count came to 64.9% in the assay with G361; 76.6% in the assay on IPC-298; 79.3% with IST-MEL1; 59.2% in the assay on LB2518-MEL; 80.3% with LOXIMVI; 77.9% with MEL-HO. The cell count with MZ2-MEL was determined as 65.7%; in the assay on MeWo it was 68.3%; with RPMI7951, 76.6%; in the assay with RVH-421, 56.8%.

`Cc1cc(Nc2cc(N3CCN(C)CC3)nc(Sc3ccc(NC(=O)C4CC4)cc3)n2)n[nH]1` [Tozasertib] + N.N.[Cl][Pt][Cl] [cisplatin] (first compound 0.03 µM, partner dose 8 µM): the cell count in the assay on G361 turned out to be 86.1%; in the assay with IPC-298, 105%; in the assay with IST-MEL1, 82.6%; in the assay on LB2518-MEL it was 104%; in the assay with LOXIMVI it was 79.5%; in the assay on MEL-HO, 75.6%. Further, the cell count came out at 110% in the assay on MZ2-MEL, 88.5% with MeWo, 74.9% in the assay on RPMI7951 and 72% in the assay on RVH-421.

The values are drawn from the supplement of paper PMC4604168 (melanoma cell lines).
